Source: the RNAGym collection of RNA variant scans (doi:10.7554/elife.90254)
Read counts are not given, so values of variants with three or more changes are uncertain.

B1: LINE1-mini (parent)
chain: GGCAGAGCUCAACACAGCGUGGCAAAGUGGCUGUGGCUAGACUGCC

Variants of: B1
Assay: self-cleavage, relative activity (ratio to wild type); higher = more cleavage; in vitro, sequencing; the parent is a self-cleaving ribozyme

Question: For GGCAGAGUUUAACACGGCGUGGCAAAGUGGCUGUGGCUAGAGUGCC, which self-cleavage is on record?
Answer: 0.03

Question: For GGCAGAGUUCAAUACAGCAUGGAAAAGUGGCUGUGGCUAGACUGCC, which self-cleavage is on record?
Answer: 0.67

Question: Which self-cleavage does the source give for GGCAGAGUUCAACACACCGUGGCAAAGAGGCUGUGUCUAGACUGCC here?
Answer: 0.11

Question: With GGCAGAGUUCAACACAGCGUGGGAAAGUGGCUGAGGCUAGACUGCC as the variant, how does the self-cleavage read?
Answer: 0.03

Question: With GGCAGAGUUCAAAACAGCGUGGCAAAGUGGCUGUGGCUAUACUGCC as the variant, how does the self-cleavage read?
Answer: 0.23

Question: With GGCAGAGUUCAACACAUCGUGGCUAAGUGGCUGUGGCUAGACUGCC as the variant, how does the self-cleavage read?
Answer: 0.2

Question: For GGCAGAGUUCAACACAACGUGGCAAAGUGGCUGUGGCUCGACUGCC, which self-cleavage is on record?
Answer: 0.12

Question: Which self-cleavage does the source give for GGCAGAGUUCAAAACAGCGUGGCAGAGUGGCUGUGGCUGGACUGCC here?
Answer: 0.1

Question: With GGCAGAGUUCAAAACAGCGUGGCAAAGUGGCUGUGUCUAGACUGGC as the variant, how does the self-cleavage read?
Answer: 0.24

Question: For GGCAGAGUUCAACAAAGCGGGGCAAAGUGGCUGUGGCUAGACAGCC, which self-cleavage is on record?
Answer: 0.08

Question: For GGCAGAGUUAAACACAGCGUGGCAAAGUGGCUGUGACUAGACUGCC, which self-cleavage is on record?
Answer: 0.04

Question: For GGCAGAGUUCAACACAGCGUGGUAAAUUGGCUGUGGCUAGAAUGCC, which self-cleavage is on record?
Answer: 0.05

Question: For GGCAGAGUUCAACACAGCGUGGCAAAAUGGCUGUAGCUAGACUGCC, which self-cleavage is on record?
Answer: 0.22

Question: For GGCAGAGUUCAACAUAGCGUGGCAAAGUGGCUGUGGAUAGAAUGCC, which self-cleavage is on record?
Answer: 0.45

Question: For GGCAGAGUUCAACACAUCGUGGCAAAGUGACUGUGGCUAGACUGCA, which self-cleavage is on record?
Answer: 0.23

Question: Which self-cleavage does the source give for GGCAGAGUUAAACACAGCGUGACAAAAUGACUGUGGAUAGCAUGAC here?
Answer: 0

Question: Which self-cleavage does the source give for GGCAGAGUUCAACACAGCGUGGCAAAGUGGUUGUGGCUAUACUGCC here?
Answer: 0.19

Question: For GGCAGAGUUGAACACAGCGUGGCAAAGUGGCUGUCGCUAAACUGCC, which self-cleavage is on record?
Answer: 0.01

Question: With GGCAGAGUUCAACACAGUGUGGCAAUGUGACUGUGGAUAGACUGCC as the variant, how does the self-cleavage read?
Answer: 0.22

Question: For GGCAGAGUUCAACAUAGCGUGGCAGAGUGGAUGUGCCUAGACAGCC, which self-cleavage is on record?
Answer: 0.07

Question: Which self-cleavage does the source give for GGCAGAGUUCAACACAGCCUGCCAAAGUGGCUGUGGCUAGACUGCU here?
Answer: 0.04

Question: Which self-cleavage does the source give for GGCAGAGUUCAACACAGCGUGGCCUAGUGGCUGUGGCUAGACUGCC here?
Answer: 0.52

Question: With GGCAGAGUUCAACACUGCGUUGCAAAGUGGCUGUGGCUAGACUGCC as the variant, how does the self-cleavage read?
Answer: 0.03

Question: Which self-cleavage does the source give for GGCAGAGUUAAACACAGCCUGGCAAAGUCGCUGUGGCUAAACUGCC here?
Answer: 0.01

Question: With GGCAGAGUUCAACACAGCGUGGCUAAGUGGUUGUGGCUAGACUGCU as the variant, how does the self-cleavage read?
Answer: 0.06

Question: For GGCAGAGUUCAACACAGCGUGGCAAUGUGGCUGUGGCUAGAAUGCC, which self-cleavage is on record?
Answer: 0.07

Question: For GGCAGAGUUGAAUACAGAGUGGCAAAGUGGAUGUGGCUAGUCUGCC, which self-cleavage is on record?
Answer: 0.03

Question: For GGCAGAGUUCAACACAGCGUGGCGAAGUGGCUGUGGCUAGACUUCC, which self-cleavage is on record?
Answer: 0.03

Question: With GGCAGAGUUCAACACAGCGUGGCAAAGUGGCUGUGGCUCGACUACC as the variant, how does the self-cleavage read?
Answer: 0.12

Question: Which self-cleavage does the source give for GGCAGAGUUCAACACAGCGUGGCAAUGUGGCCGUGGCUAGACUGCC here?
Answer: 0.34

Question: With GGCAGAGUUCAACACCGCCUGGCAAAGUGGCUUUGGCUAGGCUGCC as the variant, how does the self-cleavage read?
Answer: 0.04

Question: Which self-cleavage does the source give for GGCAGAGUUCAACACGGCGUGGCAAAGUGGCUGUGGCUAGUCUGCC here?
Answer: 0.61

Question: Which self-cleavage does the source give for GGCAGAGUUCAACACAGCGUGGCUAACUGGCUGUGGCUCGACUGCC here?
Answer: 0.08

Question: Which self-cleavage does the source give for GGCAGAGUUCAAAGCAGCGUGGCACUGUGGCCGUGGCUAGAUGGCC here?
Answer: 0.02

Question: For GGCAGAGUUUAACACAGCGUGGCAAUGUGGCUGUGGCUAGACUGCC, which self-cleavage is on record?
Answer: 0.2

Question: Which self-cleavage does the source give for GGCAGAGUUCAACACAGCGUGGCAUAGUGGCUGUGGCUAAACUGCC here?
Answer: 0.2

Question: For GGCAGAGUUCAAGACAGCGCGACAAAGUGGCUGUGGCUAGACUGCC, which self-cleavage is on record?
Answer: 0.28

Question: With GGCAGAGUUCAACACAGCGUGGCAAUGUGGCUGCGGCUAGACUGCU as the variant, how does the self-cleavage read?
Answer: 0.58

Question: For GGCAGAGUUCAACACAGCUUGGCAAAGUCGCUGUGUGUACACUGCC, which self-cleavage is on record?
Answer: 0.01

Question: For GGCAGAGUUCAACACAACUUUGCAAAGUGGCUGUGGCUAGACUGCC, which self-cleavage is on record?
Answer: 0.03

Question: Which self-cleavage does the source give for GGCAGAGUUCAACACGGCGUGGCAAAGUGGCUGUGGCUAGAGAGCC here?
Answer: 0.04

Question: For GGCAGAGUUCAACAAAGCGUGGCAAAGUGGCCGUGGCUAGACUGCC, which self-cleavage is on record?
Answer: 0.08

Question: For GGCAGAGUUCAACACACCGUGGCAACGUGGCUGUGGCUAAACUGCC, which self-cleavage is on record?
Answer: 0.2

Question: Which self-cleavage does the source give for GGCAGAGUUCAACACCGCGUGGCAAAGCGGCUGUGUCUAGAUUGCC here?
Answer: 0.12

Question: For GGCAGAGUUCAACACAGAGUGGCAAAGUGGCUGUGGCCAGACUGCC, which self-cleavage is on record?
Answer: 0.17

Question: Which self-cleavage does the source give for GGCAGAGUUCAACACAGCGUGGCAAAGUGGUUUUGGCAAGACUGCC here?
Answer: 0.1

Question: Which self-cleavage does the source give for GGCAGAGUUCAACACACCGCGGCAAAGUUGCUGUGGCUAGACUGCC here?
Answer: 0.09

Question: For GGCAGAGUUCAACACUACGUGGCAAAGUGGCUGUGGCUAAAUUGCC, which self-cleavage is on record?
Answer: 0.08

Question: With GGCAGAGUUCAACACAGCGUGGCAAAGUGGCUGUGGUUAGACUGAC as the variant, how does the self-cleavage read?
Answer: 0.09

Question: With GGCAGAGUUCAACACAGCCUGGCAAAAUGGCUUUGGCUAGCCUGCC as the variant, how does the self-cleavage read?
Answer: 0.03

Question: Which self-cleavage does the source give for GGCAGAGUUCAACAUAGCGUGCCAAAGUGGCUGGGGCUAGACUGCC here?
Answer: 0.17

Question: With GGCAGAGUUCAAGACAGCGUGGCAAAGUGGCUGUGGCUUGACUGCC as the variant, how does the self-cleavage read?
Answer: 0.05

Question: Which self-cleavage does the source give for GGCAGAGUUCAACACAGCGUGUCAAACUGCCUCUGGCUAGACUGCC here?
Answer: 0

Question: Which self-cleavage does the source give for GGCAGAGUUCAAUACAGCGUGGCAAAGUGGCUGUAGCUAGACUGCC here?
Answer: 0.15

Question: For GGCAGAGUUCAAAACAGCGUGGCAAAGUGGCUGUGACUAGACUGCC, which self-cleavage is on record?
Answer: 0.83

Question: With GGCAGAGUUCAACACACCGUAGCAUAGUGGCUGUGGCUAGACUGGC as the variant, how does the self-cleavage read?
Answer: 0.01
